Laboratory results as given in the supplement of paper PMC12217912.
This is one part of the list. The full chains were built here from the parent and the listed change. Values near 0.05 are background.

B1: TEV protease; numbered along this chain (parent)
chain: MGESLFKGPRDYNPISSSICHLTNESDGHTTSLYGIGFGPFIITNKHLFRRNNGTLVVQSLHGVFKVKDTTTLQQHLVDGRDMIIIRMPKDFPPFPQKLKFREPQREERICLVTTNFQTKSMSSMVSDTSCTFPSGDGIFWKHWIQTKDGQCGSPLVSTRDGFIVGIHSASNFTNTNNYFTSVPKNFMELLTNQEAQQWVSGWRLNADSVLWGGHKVFMVKPEEPFQPVKEATQL

Variants of: B1
Assay: raw area under fraction-flipped curve 0-4 h after induction (AUC4h, not background-subtracted), DNA-recorder readout of cleavage of the substrate (dimensionless); higher = more cleavage of the substrate by the protease variant
Conditions: temperature: 34 °C; time window: 0-4 h after rhamnose induction
Experimental: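 In vivo DNA recorder in E. coli TOP10(DE3) ΔrhaA at 34 °C. Each TEVp single-site mutant (parent TEVp 0) is paired with a single-site variant of the 7-mer TEVs (canonical ENLYFQ|S). The substrate sits between flexible linkers in a Bxb1-sfGFP-TEVs-SsrA fusion, so cleavage stabilises Bxb1 and speeds flipping of a recombination array, read by NGS. The value is the raw area under the fraction-flipped curve over 0-4 h after rhamnose induction (AUC4h), with ≥20 reads per time point. It is not background-subtracted; inactive controls average about 0.047.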
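Note: Bxb1 expression induced with 0.2% (w/v) L-rhamnose at OD600 near 0.5, cultures sampled hourly, flipped fraction per protease–substrate barcode pair counted by paired-end Illumina sequencing.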

| Variant | area with substrate CNLYFQS | area with substrate DNLYFQS | area with substrate FNLYFQS | area with substrate HNLYFQS | area with substrate INLYFQS | area with substrate KNLYFQS | area with substrate LNLYFQS | area with substrate MNLYFQS | area with substrate PNLYFQS | area with substrate VNLYFQS | area with substrate RNLYFQS | area with substrate TNLYFQS | area with substrate WNLYFQS | area with substrate YNLYFQS | area with substrate GNLYFQS | area with substrate SNLYFQS | area with substrate NNLYFQS |
| --- | --- | --- | --- | --- | --- | --- | --- | --- | --- | --- | --- | --- | --- | --- | --- | --- | --- |
| MGESLFKGPRDYNPISSSICHLTNESDGHTTSLYGIGFGPFIITNKHLFRRNNGTLVVQSLHGVFKVKDTTTLQQHLVDGRDMIIIRMPKDFPPFPQKLKFREPQREERICLGTTNFQTKSMSSMVSDTSCTFPSGDGIFWKHWIQTKDGQCGSPLVSTRDGFIVGIHSASNFTNTNNYFTSVPKNFMELLTNQEAQQWVSGWRLNADSVLWGGHKVFMVKPEEPFQPVKEATQL [V113G] | 0.0763 | 0.0717 | 0.0589 | 0.0559 | 0.0613 | 0.0456 | 0.0586 | 0.059 | 0.0607 | 0.0671 | – | – | – | – | – | – | – |
| MGESLFKGPRDYNPISSSICHLTNESDGHTTSLYGIGFGPFIITNKHLFRRNNGTLVVQSLHGVFKVKDTTTLQQHLVDGRDMIIIRMPKDFPPFPQKLKFREPQREERICLVYTNFQTKSMSSMVSDTSCTFPSGDGIFWKHWIQTKDGQCGSPLVSTRDGFIVGIHSASNFTNTNNYFTSVPKNFMELLTNQEAQQWVSGWRLNADSVLWGGHKVFMVKPEEPFQPVKEATQL [T114Y] | 0.0686 | 0.0646 | 0.0684 | 0.0328 | – | 0.0694 | 0.0778 | – | 0.102 | – | 0.0526 | 0.0752 | 0.0718 | 0.075 | – | – | – |
| MGESLFKGPRDYNPISSSICHLTNESDGHTTSLYGIGFGPFIITNKHLFRRNNGTLVVQSLHGVFKVKDTTTLQQHLVDGRDMIIIRMPKDFPPFPQKLKFREPQREERICLVTTSFQTKSMSSMVSDTSCTFPSGDGIFWKHWIQTKDGQCGSPLVSTRDGFIVGIHSASNFTNTNNYFTSVPKNFMELLTNQEAQQWVSGWRLNADSVLWGGHKVFMVKPEEPFQPVKEATQL [N116S] | 0.0639 | 0.0914 | – | 0.0709 | 0.0578 | – | 0.076 | – | – | – | – | 0.0776 | 0.0725 | 0.0655 | – | – | – |
| MGESLFKGPRDYNPISSSICHLTNESDGHTTSLYGIGFGPFIITNKHLFRRNNGTLVVQSLHGVFKVKDTTTLQQHLVDGRDMIIIRMPKDFPPFPQKLKFREPQREERICLVTTNFQTKHMSSMVSDTSCTFPSGDGIFWKHWIQTKDGQCGSPLVSTRDGFIVGIHSASNFTNTNNYFTSVPKNFMELLTNQEAQQWVSGWRLNADSVLWGGHKVFMVKPEEPFQPVKEATQL [S121H] | 0.0696 | 0.0847 | – | 0.069 | 0.0647 | 0.0739 | 0.0604 | 0.0784 | 0.0668 | 0.0564 | – | 0.0524 | 0.0453 | – | 0.0482 | 0.0668 | – |
| MGESLFKGPRDYNPISSSICHLTNESDGHTTSLYGIGFGPFIITNKHLFRRNNGTLVVQSLHGVFKVKDTTTLQQHLVDGRDMIIIRMPKDFPPFPQKLKFREPQREERICLVTTNFQTKMMSSMVSDTSCTFPSGDGIFWKHWIQTKDGQCGSPLVSTRDGFIVGIHSASNFTNTNNYFTSVPKNFMELLTNQEAQQWVSGWRLNADSVLWGGHKVFMVKPEEPFQPVKEATQL [S121M] | 0.0519 | 0.0579 | 0.0539 | 0.0617 | – | – | – | 0.0732 | – | – | – | 0.0682 | 0.0573 | 0.0545 | 0.0664 | 0.0517 | 0.0295 |
| MGESLFKGPRDYNPISSSICHLTNESDGHTTSLYGIGFGPFIITNKHLFRRNNGTLVVQSLHGVFKVKDTTTLQQHLVDGRDMIIIRMPKDFPPFPQKLKFREPQREERICLVTTNFQTKWMSSMVSDTSCTFPSGDGIFWKHWIQTKDGQCGSPLVSTRDGFIVGIHSASNFTNTNNYFTSVPKNFMELLTNQEAQQWVSGWRLNADSVLWGGHKVFMVKPEEPFQPVKEATQL [S121W] | 0.0449 | 0.0831 | 0.0641 | 0.0634 | 0.0517 | 0.0795 | 0.078 | 0.0476 | 0.0567 | 0.066 | – | 0.0766 | 0.0605 | 0.0654 | 0.0944 | 0.0622 | – |
| MGESLFKGPRDYNPISSSICHLTNESDGHTTSLYGIGFGPFIITNKHLFRRNNGTLVVQSLHGVFKVKDTTTLQQHLVDGRDMIIIRMPKDFPPFPQKLKFREPQREERICLVTTNFQTKSMDSMVSDTSCTFPSGDGIFWKHWIQTKDGQCGSPLVSTRDGFIVGIHSASNFTNTNNYFTSVPKNFMELLTNQEAQQWVSGWRLNADSVLWGGHKVFMVKPEEPFQPVKEATQL [S123D] | 0.0598 | 0.0668 | 0.0577 | 0.0562 | 0.074 | 0.0635 | 0.0481 | 0.0699 | 0.0788 | 0.072 | 0.0612 | 0.0583 | 0.0553 | 0.0559 | 0.0729 | 0.0681 | 0.0862 |
| MGESLFKGPRDYNPISSSICHLTNESDGHTTSLYGIGFGPFIITNKHLFRRNNGTLVVQSLHGVFKVKDTTTLQQHLVDGRDMIIIRMPKDFPPFPQKLKFREPQREERICLVTTNFQTKSMISMVSDTSCTFPSGDGIFWKHWIQTKDGQCGSPLVSTRDGFIVGIHSASNFTNTNNYFTSVPKNFMELLTNQEAQQWVSGWRLNADSVLWGGHKVFMVKPEEPFQPVKEATQL [S123I] | 0.0619 | 0.0837 | 0.0701 | 0.0716 | 0.0658 | 0.0554 | – | – | – | – | – | 0.0601 | 0.0675 | 0.0586 | 0.0712 | – | 0.0726 |
| MGESLFKGPRDYNPISSSICHLTNESDGHTTSLYGIGFGPFIITNKHLFRRNNGTLVVQSLHGVFKVKDTTTLQQHLVDGRDMIIIRMPKDFPPFPQKLKFREPQREERICLVTTNFQTKSMSPMVSDTSCTFPSGDGIFWKHWIQTKDGQCGSPLVSTRDGFIVGIHSASNFTNTNNYFTSVPKNFMELLTNQEAQQWVSGWRLNADSVLWGGHKVFMVKPEEPFQPVKEATQL [S124P] | 0.0664 | 0.074 | 0.0652 | 0.0614 | 0.0624 | – | 0.072 | 0.0648 | 0.0492 | – | – | 0.0623 | 0.0495 | 0.066 | – | – | 0.0785 |
| MGESLFKGPRDYNPISSSICHLTNESDGHTTSLYGIGFGPFIITNKHLFRRNNGTLVVQSLHGVFKVKDTTTLQQHLVDGRDMIIIRMPKDFPPFPQKLKFREPQREERICLVTTNFQTKSMSRMVSDTSCTFPSGDGIFWKHWIQTKDGQCGSPLVSTRDGFIVGIHSASNFTNTNNYFTSVPKNFMELLTNQEAQQWVSGWRLNADSVLWGGHKVFMVKPEEPFQPVKEATQL [S124R] | 0.063 | 0.0991 | 0.0791 | 0.0624 | 0.0519 | 0.0984 | 0.0648 | 0.0753 | 0.0686 | – | – | 0.0735 | 0.0582 | 0.0705 | 0.0667 | 0.0446 | 0.0744 |
